# Reference: the supplement of paper PMC7826260
# Some of the results follow. Viral Rep nickase domains cut single-stranded DNA in vitro for 1 h at 37 °C with 3 µM enzyme; only the middle of the 90-letter strands is printed. Uncut reads are compared with the no-enzyme pool on a log2 scale; strong cutting gives strongly negative numbers. There is no active / inactive call. The scaling is to total reads; values above 0 arise when much of the pool is cut.
# System: T1, Rep nickase domain of tomato golden mosaic virus
# T1 sequence (protein, residues 1-124, tag omitted): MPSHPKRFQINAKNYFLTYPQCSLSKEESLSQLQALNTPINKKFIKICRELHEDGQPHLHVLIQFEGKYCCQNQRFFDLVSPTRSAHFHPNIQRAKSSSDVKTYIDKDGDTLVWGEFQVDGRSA
# Test: uncleaved DNA left, log2 of reads against the no-enzyme library (log2 ratio); higher = less cleavage (more negative = more Rep cleavage of the k-mer); sequences stand for … in CTCGTCCG…ACCGGAGA
# Method: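 A pool of 90-nt single-stranded DNAs with seven random bases just before the constant AC of the nick site (name = the seven bases) was cut by 3 µM recombinant His6-SUMO-tagged Rep nickase domain (300 nM DNA, 50 mM HEPES pH 8.0, 50 mM NaCl, 1 mM MnCl2, 1 h, 37 °C, three replicates). Uncut DNA was amplified and sequenced.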
row,Sequence,uncleaved DNA left (log2)
1,AACAAAA,-0.0136
2,TATTTAA,-0.0319
3,CTCGATA,-0.0737
4,TAGAGAC,-0.121
5,GGCTGCA,-0.00546
6,GGTGTCA,0.0437
7,GGGCGGT,0.0464
8,ACTAACA,0.0173
9,ACGCCGT,-0.00213
10,CTGGCTA,-0.119
11,CCTGAGA,0.156
12,CGGTCTC,-0.209
13,TCAGAAA,0.156
14,TCGGAGG,0.29
15,ACCACGG,0.0896
16,CGTCTGT,-0.0862
17,AGCAACC,0.159
18,CTCACTT,-0.233
19,CGCTAGT,-0.185
20,GGTTCGG,0.133

row,Sequence,uncleaved DNA left (log2)
1,GGCGAGG,0.0462
2,ATGGCCA,0.0892
3,GGTTCTG,-0.123
4,TAACGGC,0.0927
5,AGACATC,-0.0817
6,ATGTACA,-0.021
7,ACTCCTT,-0.0645
8,TTTTATC,-0.00434
9,CGTCGGT,0.0958
10,GGTTCCT,0.115
11,TGGTTAC,0.135
12,ACGGACG,0.0164
13,CTGTCCC,-0.0783
14,CTGAGTG,-0.127
15,ACAGGCT,0.0542
16,ACCAACC,0.059
17,AGTCATA,0.0479
18,AGACGCA,0.07
19,AATGGGC,0.0138
20,CCAAAAA,0.217
